Results taken from the RNAGym collection of RNA variant scans (doi:10.1073/pnas.2313332121).
This sample is rich in variants without activity.

B1: TPR 5TU (parent)
chain: GGAUCUUCUCGAUCUAACAAAAAAGACAAAUCUGCCACAAAGCUUGAGAGCAUCUUCGGAUGCAGAGGCGGCAGCCUUCGGUGGCGCGAUAGCGCCAACGUUCUCAACUAUGACACGCAAAACGCGUGCUCCGUUGAAUGGAGUUUAUCAUG

Variants of: B1
Assay: polymerase ribozyme fitness, log enrichment relative to wild type (log ratio); higher = more active; in vitro selection for triplet polymerase activity
Outline: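 Both subunits of a heterodimeric triplet polymerase ribozyme were given their own mutant library, built by PCR and transcribed. Each library was annealed with a biotinylated primer, the partner subunit and triplets, incubated frozen at −7 °C, and its extended constructs gel-excised, captured on streptavidin beads and amplified by RT-PCR, all in one round done in triplicate. Fitness is the logarithm of genotype enrichment relative to wild-type enrichment, with replicates averaged by inverse-variance weighting. That logarithm is base 2, and Illumina-sequenced genotypes needed ≥10 input reads and ≥1 read per output.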

Variant | polymerase ribozyme fitness (log ratio)
GGAUCUUCUCGAUCUAAUAAAAAAGACAAAUCUGCCACAAAGCUUGAGAGCAUCUUCGGAUGCAGAGGCGGCAGCCUUCGGUGGCGCGAUAGCGCCAACGUUCUCAAUUAUGACACGCAAAACGCGUGCUCCGUUGAAUGGAGUUUAUCAUG [C18U C108U] | -3.57
GGAUCUUCUCGAUCUAAUAAAAAAGACAAAUCUGCCACAAAGCUUGAGAGCAUCUUCGGAUGCAGAGGCGGCAGCCUUCGGUGGCGCGAUAGCGCCAACGUUCUCAACUAUGACACGCAAAACGCGUGCUCUGUAGAAUGGAGUUUAUCAUG [C18U C132U U135A] | -2.33
GGAUCUUCUCGAUCUAAUAAAAAAUACAAAUCUGCCACAAACCUUGAGAGCAUCUUCGGAUGCAGAGGCGGCUGCCUUCGGUUGCGCGAUAGUGCCAACGUUCUCGACUAUGACACGCAACACGCGUGCUCCGUUGAAUGGAGAUUAUCAUG [C18U G25U G42C A73U G83U C93U A106G A121C U144A] | ≤ -4.2
GGAUCUUCUCGAUCUAAUAAAAAAUACAAAUCUGCCACAAAGCUUGAAAGCAUCUUCGGAUGCAGAGGCGGCAGCCUUCGGUUGCGCGAUAGCGCCAACGUUCUCAACUAUGACACGCAAAACGCGUGCUCCGUUGAAUGGAGUUUAUCAUG [C18U G25U G48A G83U] | ≤ -4.2
GGAUCUUCUCGAUCUAAUAAAAAAUACAAAUCUGCCACAAAGCUUGAGAGCAUCUUCGGAUGCAGAGGCGGCAGCCGUCGGUGGCGGGAUAGCGCCAACGUUCUCAACUAUGAUACGCAAAACGCGUGCUCCGUUGAAUGGAGUUUAUCAUG [C18U G25U U77G C87G C114U] | ≤ -4.2
GGAUCUUCUCGAUCUAAUAAAAAAGACAAAUCUACCACAAAGCUUGAGAGCAUCUUCGGAUGCAGGGGCGGCAGCCUUCGGUGGCGCGAUAGCGCCCACGUUUUCAACUAUGACACGCAAAAGGCGUGCUCCGUUGAAUGGAGUUUAUCAUG [C18U G34A A66G A97C C103U C123G] | ≤ -4.2
GGAUCUUCUCGAUCUAAUAAAAAAGACAAAUCUACCACAAAGCUUGAUAGCAUCUUCGGAUGCAGAGGCGGCAGUCUUCGGUGGCGCGAUAGCCCCAACGUUCUCAACUAUGACACGCAAAACGCGUGCUCCGUUGAAUGUAGUUUAUCAUG [C18U G34A G48U C75U G94C G141U] | ≤ -4.2
GGAUCUUCUCGAUCUAAUAAAAAAGACAAAUCUGCCACAAAGCUUUAGACCAUCUUCGGAUGCAGAGGCGGCAGCCUUCGGUAGCGCGAUAGCGCCAACGUUCUCAACUAUGACACGCAAAACGCGUGCUCCGUUGAAUGGAGUUUAUCAUG [C18U G46U G50C G83A] | ≤ -4.2
GGAUCUUCUCGAUCUAAUAAAAAAGACAAAUCUGCCACAAAGCUUGAUAGCAUCAUCGGAUGCAGAGGCGGCAGCCUUCGGUGGCGCGAUUGCGCCAACGUUCUCAACUAUGACACGCAAAACGCGUGCUGCGUUGAAUGAAGUUUAUCAUG [C18U G48U U55A A91U C131G G141A] | ≤ -4.2
GGAUCUUCUCGAUCUAAUAAAAAAGACAAAUCUGCCACAAAGCUUGAGAGCAUCUUCCGAUGCAGAGGCGGCAGCCUUCGGUGGCGCGAUAGCGCCAACGUUCUCAACUAUGACACGCAAAACGCGUGCUCCGUUGUAUGGAGUUUAUCAUG [C18U G58C A137U] | ≤ -4.2
GGAUCUUCUCGAUCUAAUAAAAAAGACAAAUCUGCCACAAAGCUUGAGAGCAUCUUCCGAUGCAGAGGCGGCAGCCUUCGGUGGUGUGAUAGCGCCAACGUUCUCAACUAUGACACGCAAAACGCGUGCUCCGUUGAAUGGAGUUUAUCAUG [C18U G58C C85U C87U] | -1.92
GGAUCUUCUCGAUCUAAUAAAAAAGACAAAUCUGCCACAAAGCUUGAGAGCAUCUUCGCAUGCAGAGGCGGCAGCCUUCGGUGGCGCGAUAGCGCCAACGUUCGCAACUAUGACACGCAAAACGCGUGCUCCGUUGCAUGGAGUUUAUCAUG [C18U G59C U104G A137C] | ≤ -4.2
GGAUCUUCUCGAUCUAAUAAAAAAGACAAAUCUGCCACAAAGCUUGAGAGCAUCUUCGGAUGCAUAGGCGGCGGCCUUCGGUGGUGCGAUAGCGCCAACGUUCUCAACUAUGACACGCAAAACGCGUGCUCCGUUGAAUGCAGUUUAUCAUG [C18U G65U A73G C85U G141C] | ≤ -4.2
GGAUCUUCUCGAUCUAAUAAAAAAGACAAAUCUGCCACAAAGCUUGAGAGCAUCUUCGGAUGCAGAGGCGGCAGCCUUCGAUGGCGUGAUAGCGCCUACGUUCUCAACUAUGACACGCAAAACGCGUGCUCCGUUGAAUGGAGUUUAUCAUG [C18U G81A C87U A97U] | -1.14
GGAUCUUCUCGAUCUAAUAAAAAAGACAAAUCUGCCACAAAGCUUGAGAGCAUCUUCGGAUGCAGAGGCGGCAGCCUUCGGUGACGCGAUAGCGCCAACGUUCUCAACUAUGACACGAAAAACGCGUGCUCCGUUGAAUGGCGCUUAUCAUG [C18U G84A C118A A142C U144C] | ≤ -4.2
GGAUCUUCUCGAUCUAAUAAAAAAGACAAAUCUGCCACAAAGCUUGAGAGCAUCUUCGGAUGCAGAGGCGGCAGCCUUCGGUGACGCGAUAGCGCCAACGUACUCAACUAUGACACGCAAAAGGCGUGCUCCGUUGAAUGGAGUUUAUCAUG [C18U G84A U102A C123G] | -2.76
GGAUCUUCUCGAUCUAAUAAAAAAGACAAAUCUGCCACAAAGCUUGAGAGCAUCUUCGGAUGCAGAGGCGGCAGCCUUCGGUGUCGCAAUUGCGCAAACGUUCUCAACUAUGACACGCAAAACGUGUGCUCCGUUGAAUGGAGUUUAUCAUG [C18U G84U G88A A91U C96A C125U] | ≤ -4.2
GGAUCUUCUCGAUCUAAUAAAAAAGACAAAUCUGCCACAAAGCUUGAGAGCAUCUUCGGAUGCAGAGGCGGCAGCCUUCGGUGGCUCGAUAGCGCCAACGUUCUCAACUAUGACACGCAAAACGCGUGCUCCGUUGAAUGGAGUUUAUCAUG [C18U G86U] | -2.18
GGAUCUUCUCGAUCUAAUAAAAAAGACAAAUCUGCCACAAAGCUUGAGAGCAUCUUCGGAUGCAGAGGCGGCAGCCUUCGGUGGCGCCAUAGCGCCAACGUUAUCAACUAUCACACGCAAAACGCGUGCUCCGUUGAAUGGACUUUAUCAUG [C18U G88C C103A G112C G143C] | ≤ -4.2
